Drawing on publication PMC11628618, this text covers binding for 3 molecules.

Test [1] has as its target T1, MmsF, bacterial two-hybrid fusion (Magnetospirillum gryphiswaldense MSR-1) (UniProt A4U547).
T1 sequence: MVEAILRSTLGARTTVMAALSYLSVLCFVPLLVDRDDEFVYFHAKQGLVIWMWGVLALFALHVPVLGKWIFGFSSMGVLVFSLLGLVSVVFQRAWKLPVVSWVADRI
The test is described as follows: two-hybrid; adenylate cyclase-based bacterial two-hybrid (BACTH), T18 and T25 fusions co-transformed into E. coli BTH101; spotted on M63 maltose/X-Gal/IPTG agar, 28 °C, one day; only homogeneous intense blue counted as positive.

Test [2] deals with T2, MamF, bacterial two-hybrid fusion (Magnetospirillum gryphiswaldense MSR-1) (UniProt Q6NE74).
T2 sequence: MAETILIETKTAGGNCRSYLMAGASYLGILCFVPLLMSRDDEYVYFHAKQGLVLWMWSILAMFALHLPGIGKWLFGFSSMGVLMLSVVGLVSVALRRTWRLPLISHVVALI
The test is described as above.

Test [3] addresses T3, GFP-MmsF fusion protein (Magnetospirillum gryphiswaldense MSR-1) (UniProt A4U547).
T3 sequence: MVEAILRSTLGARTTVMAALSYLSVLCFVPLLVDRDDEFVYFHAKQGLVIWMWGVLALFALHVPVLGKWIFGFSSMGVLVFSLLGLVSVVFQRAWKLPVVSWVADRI
The test is described as follows: co-IP; isolated magnetosomes solubilized with 0.5% Triton X-100 (10 mM HEPES, 1 mM EDTA, 50 mM NaCl, pH 7.4), diluted to 0.1% Triton X-100; GFP-Trap agarose, 1 h at 4 °C; Western blot with GFP and MamJ antibodies. Background: Immunoblotting shows a protein as a band on a membrane.

The target in test [4] is T4, GFP-MamF fusion protein (Magnetospirillum gryphiswaldense MSR-1) (UniProt Q6NE74).
T4 sequence: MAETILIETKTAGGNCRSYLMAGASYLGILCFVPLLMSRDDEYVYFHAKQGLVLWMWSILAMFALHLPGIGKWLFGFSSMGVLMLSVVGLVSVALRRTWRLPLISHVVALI
Described as above.

These are yes or no findings as the source states them, for the method shown. For part of these data: In cells and extracts the contact can be indirect. Some binding calls cover weakened binding; strength is not graded here. Sequences can lack the tags named with a protein.

B1: Mms6 (protein, UniProt Q6NE76 1-136)
chain: MGEMEREGATAKVGAGKVGAGKVGAAKAGAAPAAAQGAGTKVVAAQGAGTKVVAAQGAGAKAAAVGVGKVGAGAKAVGGTIWSGKGLALGLGMGLGAWGPLILGVVGAGAVYAYMKSRDIEAAQSDEEVELRDALS
As for B1, the binding result in test [1] and in test [2] was “no binding” in each case.

B2: MamJ (magnetosome membrane adaptor protein) (protein, UniProt V6F519 1-466)
chain: MAKNRRDRGTDLPGDGDQKISTGPEIVSVTVHPSPNLAAAAKPVQGDIWASLLESSPWSANQGGLVETAQPPSAPIRSQDPVPVADLVNRWSQPIWRTAPLAGNAESSEEGVVAPSLTQSDSVLAVSDLVIDVQPETDAEVEVSIEPEPALVEPVIEIEAEAAEVEPEPAPVADLVNRWAQPIWRTAPLAGNAESSEEGVVAPSLTQSDSVLAVSDLVIDVQPEANAEVEVSIEPEPALVEPVIEIEAEAAEVEPEPAPVEPVIEIEAEAAEVEPEPAPVEPVIEIEAEAAEVEPEPAPVEPAIEIEAIRVELEPVLIDEVVELVTEFEYSQAESVASADLIANPAPAESSRLAELLDEAAAIAAPAVAVAVEATRQPNKITASVKKRAPVQEVPVEDLLGGIFGVAGSAVRGVFTIGGGFVDGVVKGGRLVGSNVVAGTRRLAQTIEVSCGSCSSPKCDAEDKNK
Turning to B2, the binding result in test [3] is recorded as “binds weakly”; in test [4], “no binding”.

B3: MamG (protein, UniProt Q6NE75 1-84)
chain: MIKGIAGVGGTALGVGGGVAAPPVSAAAVGSTLLAGKGVCLGLGLGLGAWGPVLLGVAGLACAASLCDYLKNRKAQAEASAEPA
In the case of B3, the binding result in test [1] and in test [2] was “no binding” each time.
